From the RNAGym collection of RNA variant scans (doi:10.1093/nar/gkz1192)
Read counts are not given, so values of variants with three or more changes are uncertain.

B1: CPEB3 Ribozyme (parent)
chain: UAACAGGGGGCCACAGCAGAAGCGUUCACGUCGCAGCCCCUGUCAGAUUCUGGUGAAUCUGCGAAUUCUGCUGUAUAUCUC

Variants of: B1
Assay: self-cleavage, relative activity (ratio to wild type); higher = more cleavage; in vitro, sequencing
How it was run: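 Libraries of CPEB3 self-cleaving ribozyme mutants came from rounds of error-prone PCR and carried barcodes, which DNA sequencing matched to variants. In vitro transcription used T7 RNA polymerase at 37°C for 5 hours, with a further 15 min in DNase I before EDTA stopped the reaction; the ribozymes cleaved during both steps. The RNA was reverse transcribed with template switching and sequenced on Illumina. Relative activity is the cleaved/total read fraction of a variant divided by that of the unmutated ribozyme, averaged over three batches with at least 5 reads.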

Variant	self-cleavage
C11G A15G A35U G52A	0.38
C11G A15G A45U A56G A77G	0.09
C11G A15G A57G	0.46
C11G A15G A57G U78C	0.1
C11G A15G C17U A18G U67C G70C U72G	0.01
C11G A15G C29U A45G U51C	0.11
C11G A15G C29U U31C A57G U78C	0.03
C11G A15G G19U A28G U51A	0.04
C11G A15G G33A U49C	0.32
C11G A15G U26C U51A U69A	0.04
C11G A15G U43C U74A	0.1
C11G A15G U51A G61A	0.35
C11G A15G U51A U78C	0.15
C11G A15G U51C U60C G63A A65G U74A	0.19
C11G A15G U51C U60C U72A	0.09
C11G A15U A45G U48A U72C	0.27
C11G A15U A64G	0.34
C11G A15U U25C U31A U43C A45G U74C	0.31
C11G A15U U26C U67G	0.18
C11G A15U U43G A65U	0.07
C11G A15U U51C U80C	0.21

Variant	self-cleavage
C11G A18C A77U	0.09
C11G A18C C38A U41A A56G U66G	0.03
C11G A18C U43A U78C	0.05
C11G A18G A21G A65U U78C	0.07
C11G A18G A35U U49A A65G U66C	0.06
C11G A18G A47G U72C U80C	0.23
C11G A18G A57C A64U U74C	0.04
C11G A18G A64U	0.11
C11G A18G C23G C40U U67C U74A	0.05
C11G A18G C32U	0.06
C11G A18G C37A U48A U58A	0.07
C11G A18G C40U A47U	0.06
C11G A18G C59U U80C	0.15
C11G A18G G61C	0.06
C11G A18G U41A A45U	0.06
C11G A18G U49C G52A A75U	0.06
C11G A18G U72G U78C	0.1
C11G A18U A20U U49C A56G A64G U69C	0.03
C11G A18U A21G A35U A57G U60A U72C	0.13
C11G A18U A35G	0.06
C11G A18U A35G C38U U43C A56G	0.05

Variant	self-cleavage
C11G A18U A47U A65G A75C	0.05
C11G A18U U43A A64U A65G U76A	0.04
C11G A18U U60C U69C U76C U78C	0.06
C11G A20C A35U U74C	0.05
C11G A20G A35G U43A U72C	0.34
C11G A20G A35U A45U U72C	0.09
C11G A20G G36A U43C U48C	0.05
C11G A20G U25C U31C U41A	0.05
C11G A20G U26C A77U	0.44
C11G A20G U51A U60A A77G	0.08
C11G A20G U67G	0.19
C11G A20U A21G U26C U72A	0.08
C11G A20U U25C	0.07
C11G A20U U25C A28U	0.07
C11G A20U U26C A45G U66C	0.04
C11G A20U U72A U78C	0.18
C11G A21G A45C U49C C71U	0.05
C11G A21G A56U	0.03
C11G A21G C29U	0.42
C11G A21G U25A A28G A57G U67C	0.18
C11G A21G U26C U49A U58C	0.05

Variant	self-cleavage
C11G A21G U26C U58C U67C U69A	0.04
C11G A21G U78A	0.41
C11G A21U U25A C27U C32U	0.06
C11G A28G A35U U49C U67C U72G	0.04
C11G A28G A57G U72C A75G	0.11
C11G A28G A64G U67G	0.07
C11G A28G U41A U48C U74A	0.27
C11G A28G U49C U78C	0.08
C11G A28G U67C	0.1
C11G A28U A45G A56G U80C	0.05
C11G A28U U49C	0.11
C11G A35G A45G U66C	0.43
C11G A35G A47G U78A U80C	0.24
C11G A35G A75U	0.57
C11G A35G U49A U51A U69C	0.07
C11G A35G U51C A64U	0.28
C11G A35G U80C	0.22
C11G A35U U66C A77G	0.06
C11G A45G A64U U72C	0.25
C11G A45G U58A G73A	0.11
C11G A45U U60C	0.62
